Reference: paper PMC4336329 (PLoS ONE, 2015)
About 2,200 (0.71%) of roughly 310,000 compounds showed an effect of 50% or more. The effect is printed as a negative number. This is one part of the list.

What follows are compounds tested against human ether-à-go-go-related gene (hERG) potassium channel (human, UniProt Q12809) (assay: primary screen, population patch clamp on CHO cells stably expressing hERG).
Sequence of human ether-à-go-go-related gene (hERG) potassium channel (Q12809 whole entry, looked up): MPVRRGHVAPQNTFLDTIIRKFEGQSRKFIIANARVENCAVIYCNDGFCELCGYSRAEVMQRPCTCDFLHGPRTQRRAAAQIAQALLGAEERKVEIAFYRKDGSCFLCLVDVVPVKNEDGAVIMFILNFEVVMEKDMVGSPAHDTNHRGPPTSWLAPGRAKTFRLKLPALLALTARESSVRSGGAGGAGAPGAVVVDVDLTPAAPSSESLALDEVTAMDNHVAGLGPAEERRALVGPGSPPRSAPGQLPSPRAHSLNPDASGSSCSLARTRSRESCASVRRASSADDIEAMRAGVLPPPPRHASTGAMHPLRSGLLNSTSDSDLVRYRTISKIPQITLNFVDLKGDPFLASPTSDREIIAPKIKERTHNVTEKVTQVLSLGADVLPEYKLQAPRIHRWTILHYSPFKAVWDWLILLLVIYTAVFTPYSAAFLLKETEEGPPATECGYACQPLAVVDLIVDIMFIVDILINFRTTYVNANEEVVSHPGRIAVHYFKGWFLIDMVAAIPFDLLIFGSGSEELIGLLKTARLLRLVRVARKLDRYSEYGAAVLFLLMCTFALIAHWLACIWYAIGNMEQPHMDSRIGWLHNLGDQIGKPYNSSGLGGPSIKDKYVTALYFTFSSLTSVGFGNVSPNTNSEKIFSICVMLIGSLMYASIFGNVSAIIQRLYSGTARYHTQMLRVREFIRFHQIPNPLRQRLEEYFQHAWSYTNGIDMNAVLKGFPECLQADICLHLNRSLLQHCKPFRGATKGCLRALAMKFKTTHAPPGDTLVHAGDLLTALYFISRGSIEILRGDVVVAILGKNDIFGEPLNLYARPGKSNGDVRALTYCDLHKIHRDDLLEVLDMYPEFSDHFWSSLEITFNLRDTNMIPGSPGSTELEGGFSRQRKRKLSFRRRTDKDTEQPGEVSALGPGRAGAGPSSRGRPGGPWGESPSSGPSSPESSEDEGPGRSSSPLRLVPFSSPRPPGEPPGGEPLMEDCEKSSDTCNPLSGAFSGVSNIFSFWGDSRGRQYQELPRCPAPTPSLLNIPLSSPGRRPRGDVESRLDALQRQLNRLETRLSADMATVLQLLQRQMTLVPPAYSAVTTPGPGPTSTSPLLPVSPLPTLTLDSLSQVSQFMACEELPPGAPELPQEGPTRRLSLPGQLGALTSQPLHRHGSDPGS

Compound | hERG current change (%, negative = inhibition) at 1uM
Cc1cccc(/C=N/NC(=O)C(C)Nc2cccc3ccccc23)n1 (stereo not shown) | 7.13%
COc1ccc(CNC(=O)CSc2ncnc3nc[nH]c23)cc1 | -16.6%
COc1ccc(CCNC(=O)c2csc3c2CCCC3)cc1 | 8.79%
O=C(NCc1ccccn1)c1cc(-n2cnnc2)ccc1Cl | 9.18%
CCCCSP1(=S)NCCCN1 | 12.3%
Cc1cccc(NC(=S)NCc2ccncc2)c1C | 11.1%
O=c1c(Cc2ccc(F)cc2)c(O)ccn1CCc1ccccn1 | 9.19%
COC(=O)c1ccc(C2c3c(oc4ccc(F)cc4c3=O)C(=O)N2CCO)cc1 (stereo not shown) | 4.81%
COCCNC(=O)c1ccccc1NC(=O)Nc1ccccc1 | 4.16%
COc1ccccc1OCCn1cc(C#N)c2ccccc21 | 12.3%
Cc1ccccc1Nc1nc2ccccc2n1C(C)C | 0.498%
O=C(NNC(=O)C1CC=CCC1C(=O)O)c1ccc(Cl)cc1 (stereo not shown) | 7.83%
Cc1cc(C)nc(Nc2ncc(O)n2-c2ccc(Br)cc2)n1 | 24%
CCOC(=O)Cc1csc(NC(=O)c2c(O)c3ccccc3n(CC(C)C)c2=O)n1 | 3.02%
Cc1noc(C)c1S(=O)(=O)NCc1ccc2c(c1)OCO2 | 0.814%
Cc1nnc(NC(=O)c2c(-c3ccccc3Cl)noc2C)s1 | 6.82%
O=C(O)c1ccccc1C(=O)NC1=NN(c2ccccc2)CC1 | -0.2%
O=S(=O)(/C=C/c1ccccc1)Oc1ccccc1 | -2.84%
Cc1cc(C)c2c(N)c(C(=O)N/N=C/c3cccs3)sc2n1 | 11%
COc1cccc(C(=O)N2CCN(C(=O)Cc3ccccc3)CC2)c1.O=C(O)C(=O)O | 7.14%

Compound | hERG current change (%, negative = inhibition) at 1uM
CC(OC(=O)Cc1c[nH]c2ccccc12)C(=O)NC1CCCCC1C (stereo not shown) | 12.6%
CCOC(=O)CSc1nc(N)c2c3c(sc2n1)CCCC3 | -0.605%
CCCC(O)(CCN1CCOCC1)c1ccc(Br)cc1.Cl (stereo not shown) | 7.3%
O=c1cc(CO)oc(C(Nc2ccccn2)c2cccc(F)c2)c1O (stereo not shown) | -0.0884%
CN(C)c1ccc(C2C3C(=O)N(c4ccc(C(=O)O)cc4)C(=O)C3ON2c2ccccc2)cc1 (stereo not shown) | 9.6%
CCOC(=O)c1ccc(NC(=O)CCc2nc(-c3ccc(Cl)cc3)no2)cc1 | 8.98%
O=C(O)C(C/C(=N/O)c1ccc(Br)cc1)P(=O)(c1ccccc1)c1ccccc1 (stereo not shown) | 11.4%
O=C(O)CC(NC(=O)C1c2ccccc2Oc2ccccc21)c1ccc(Cl)cc1 (stereo not shown) | 4.83%
COc1ccc(S(=O)(=O)N2CCN(CCOc3ccc(Br)cc3)CC2)cc1OC | 0.25%
Cc1occc1-c1nnc(SCC(=O)c2ccc3c(c2)OCCO3)n1CC1CCCO1 (stereo not shown) | 0.261%
CCC(=NCCC1=CCCCC1)c1c(O)[nH]c(=O)[nH]c1=O | -4.06%
Cc1cc(Cl)ccc1OCc1nc(-c2ccncc2)no1 | 8.18%
COc1ccc(CCNCC(O)COc2cccc(C(C)=O)c2)cc1OC.O=C(O)C(=O)O (stereo not shown) | 16%
O=C(CN1C(=O)C2CC=CCC2C1=O)NCc1cccs1 (stereo not shown) | 10.8%
O=C(CN1CCN(Cc2ccccc2F)C1=O)NCC1CCCO1 (stereo not shown) | 9.72%
C/C(=N/Nc1ccc(Cl)cc1)c1cnnc(-c2ccccc2)n1 | 19.6%
N#Cc1c(-c2ccccc2)cc(-c2ccccc2)nc1SCC(=O)O | 14.3%
COc1ccc(NCc2nnc(SCC(=O)N3CCCc4ccccc43)o2)cc1 | 3.64%
COC(=O)c1cc(NC(=O)Nc2ccccc2)ccc1Cl | 9.56%
Cc1ccc(-c2nc(CS(=O)CC(=O)NCc3ccc(Cl)cc3)c(C)o2)cc1 (stereo not shown) | 5.91%

Compound | hERG current change (%, negative = inhibition) at 1uM
Cc1noc(C)c1C(=O)Nc1ccc(F)cc1 | 23.9%
CCOC(=O)c1ccccc1NC(=O)c1cc2ccccc2o1 | 15.6%
CCCOc1ccc(C(=O)CCC(=O)Nc2ccc(N3CCN(C)CC3)cc2)cc1 | 1.17%
CCOc1ccccc1C(=O)NCC(=O)NNC(=O)CN(C)S(=O)(=O)c1ccc(Cl)cc1 | 7.26%
Br.O=C(Cn1c(NCCO)nc2ccccc21)c1ccc(F)cc1 | 12.2%
Cc1noc(C)c1COC(=O)c1cccnc1Cl | 11.9%
CN(CC(=O)NCCc1ccc(Cl)cc1)S(=O)(=O)c1ccc2c(c1)c(=O)n(C)c(=O)n2C | -0.657%
O=C(N/N=C/c1c[nH]c2ccccc12)c1ccccc1O | 12.3%
O=C(NCc1cccnc1)c1ccccc1NC(=O)c1c(F)cccc1F | 8.41%
COC(=O)c1ccc2c(=O)n(CCN3CCOCC3)c(SCC(=O)Nc3ccccc3Cl)nc2c1 | 8.04%
CCC(C)(C)C1CCC2(CC1)NC(=S)N(c1ccccc1)N2 (stereo not shown) | 11.1%
CCCn1c(C(C)Nc2nc(-c3ccc(C)cc3)cs2)nc2cc(Cl)c(N3CCCCC3)cc21 (stereo not shown) | 24.8%
Cc1ccc2nc(SCC(=O)Nc3cc(C)on3)c(C)cc2c1 | 16.7%
O=C(Cn1cnc2ccccc2c1=O)NCC(=O)N1CCOCC1 | -4.19%
CCCCCn1c(=NC(C)=O)c(C#N)cc2c(=O)n3ccccc3nc21 | 0.0455%
COc1ccc(S(=O)(=O)N(C)CC(=O)NCc2ccco2)cc1OC | 13.9%
Cc1cc(=O)oc2cc(OC(C)C(=O)NCCCN3CCCC3=O)c(Cl)cc12 (stereo not shown) | 12.6%
CCNC(=O)CC1C(=O)N(c2ccc(C)cc2)C(=O)N1CCC(C)C (stereo not shown) | 7.2%
